Data taken from article PMC3217859.
No constants are given. Whether binding was seen depends on the method and setting. In cells and extracts the contact can be indirect. Some results given as binding are weak or reduced against the parent protein; the word gives no strength. For part of these data: Sequences can lack the tags named with a protein.

How the values were obtained:
Assay in all cases: co-IP; anti-HA immunoprecipitates (12CA5 with protein A-Sepharose, or F7 anti-HA-agarose when probing for Mst3 or Mst4; 1.5 h, 4°C) of lysates (1% Nonidet P-40, 0.135 M NaCl, 10% glycerol, 20 mM Tris pH 8.0) of HEK293 cells transfected with HA-striatins; endogenous partners by immunoblot, partner/HA-striatin ratio by chemilumimager against wild type; 50 mM NaF and 100 nM okadaic acid in the lysis buffer in the phosphorylation experiments
[1] = biological target: HA-tagged striatin with deletion of residues 191-269 (human) (UniProt O43815)
[2] = biological target: T1, HA-tagged Δ(115-149) striatin (human) (UniProt O43815)
T1 sequence: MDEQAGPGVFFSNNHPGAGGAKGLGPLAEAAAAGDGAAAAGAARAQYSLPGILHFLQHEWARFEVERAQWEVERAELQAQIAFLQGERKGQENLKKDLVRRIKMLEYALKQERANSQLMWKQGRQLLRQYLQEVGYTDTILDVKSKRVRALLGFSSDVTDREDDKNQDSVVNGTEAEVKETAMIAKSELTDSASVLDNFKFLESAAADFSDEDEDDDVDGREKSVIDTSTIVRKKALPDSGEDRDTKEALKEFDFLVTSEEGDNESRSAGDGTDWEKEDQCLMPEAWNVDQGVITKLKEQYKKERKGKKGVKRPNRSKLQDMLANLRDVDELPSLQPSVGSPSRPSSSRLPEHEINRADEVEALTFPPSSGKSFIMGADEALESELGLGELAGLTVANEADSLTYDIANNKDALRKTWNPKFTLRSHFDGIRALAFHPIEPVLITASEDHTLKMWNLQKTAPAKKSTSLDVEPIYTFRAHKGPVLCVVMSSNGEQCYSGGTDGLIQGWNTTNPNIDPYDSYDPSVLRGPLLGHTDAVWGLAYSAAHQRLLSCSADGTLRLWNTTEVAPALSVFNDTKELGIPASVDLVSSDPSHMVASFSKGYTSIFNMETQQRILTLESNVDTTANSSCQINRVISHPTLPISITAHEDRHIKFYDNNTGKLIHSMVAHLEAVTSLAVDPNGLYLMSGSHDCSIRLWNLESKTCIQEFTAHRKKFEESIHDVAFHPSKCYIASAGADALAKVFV

[3] = biological target: T2, HA-tagged R100S/R101E striatin (human) (UniProt O43815)
T2 sequence: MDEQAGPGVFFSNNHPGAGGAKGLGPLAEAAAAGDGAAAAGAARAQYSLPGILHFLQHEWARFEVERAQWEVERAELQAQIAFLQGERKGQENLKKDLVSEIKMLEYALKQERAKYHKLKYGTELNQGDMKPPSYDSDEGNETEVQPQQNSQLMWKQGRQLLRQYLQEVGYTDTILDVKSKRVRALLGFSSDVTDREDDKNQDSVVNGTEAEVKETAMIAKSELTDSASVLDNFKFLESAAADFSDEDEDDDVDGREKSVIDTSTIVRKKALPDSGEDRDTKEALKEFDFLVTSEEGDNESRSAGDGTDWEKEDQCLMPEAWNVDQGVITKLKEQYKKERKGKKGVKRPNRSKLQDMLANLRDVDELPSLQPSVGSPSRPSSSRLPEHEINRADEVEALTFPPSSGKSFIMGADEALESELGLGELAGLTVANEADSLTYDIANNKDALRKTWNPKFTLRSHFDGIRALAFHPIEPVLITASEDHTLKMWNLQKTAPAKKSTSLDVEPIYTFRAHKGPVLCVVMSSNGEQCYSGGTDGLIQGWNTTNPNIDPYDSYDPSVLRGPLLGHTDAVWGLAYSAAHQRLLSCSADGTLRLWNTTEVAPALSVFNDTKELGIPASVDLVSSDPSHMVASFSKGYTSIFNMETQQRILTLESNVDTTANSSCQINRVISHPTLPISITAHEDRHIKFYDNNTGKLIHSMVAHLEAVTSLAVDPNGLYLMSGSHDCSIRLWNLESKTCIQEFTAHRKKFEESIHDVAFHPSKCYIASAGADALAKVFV

Measured: binding

B1: Mob3/phocein (protein, UniProt Q9Y3A3 1-225)
chain: MVMAEGTAVLRRNRPGTKAQDFYNWPDESFDEMDSTLAVQQYIQQNIRADCSNIDKILEPPEGQDEGVWKYEHLRQFCLELNGLAVKLQSECHPDTCTQMTATEQWIFLCAAHKTPKECPAIDYTRHTLDGAACLLNSNKYFPSRVSIKESSVAKLGSVCRRIYRIFSHAYFHHRQIFDEYENETFLCHRFTKFVMKYNLMSKDNLIVPILEEEVQNSVSGESEA
binds: all assays above
